Our source for the thermal melting temperature values is the supplement of paper PMC7726561.

In all, about 1,400 sequences were measured (“thermal melting temperature (Tm) of peptide-HLA complex”: median about 60, lowest 2% from about 45 on). Some of the results follow.
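Also: cell lysates heated 10 min at 37–73 °C, remaining pHLA pulled down with pan-class I antibody, peptides quantified by DIA-MS versus 37 °C, Tm where half the complex is lost.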

The test addresses HLA-B*07:02. Briefly: thermal melting temperature (Tm) of peptide-HLA complex; higher = more thermostable pHLA complex. The settings on record: C1R-B*07:02.
As for SPYQNIKIL, the thermal melting temperature was determined as 61.2 °C.
In turn, VPQVKASAL gave a thermal melting temperature of 59 °C.
Next, APYAASRLL: 58.2 °C.
Next, NVRPVPLEL: 60.2 °C; MPYDSNRVVL: 56 °C.
Next, KPRSLQTGF: 58.5 °C; IPQGGRGAIQF: 60.3 °C.
FPHPLPSL yielded a thermal melting temperature of 61.6 °C.
KPYIRTSL showed a thermal melting temperature of 61.2 °C.
Next, SINAQRNAL: 54.2 °C.
In turn, SPLTKSISL displayed a thermal melting temperature of 60.6 °C.
Under APSRNGMVL stands 56.7 °C; under RPFPGLVI, 63 °C.
Under SPFGSSFRTF stands 58.1 °C; under LPADFGRLV, 56.6 °C; under LPQLPLAAL, 59 °C.
RPLTSPESL had a thermal melting temperature of 54.2 °C.
Under HPRIASGLGL stands 59.2 °C; under LPRPPMLLA, 62.3 °C.
Under APAPTVRLGL stands 61.5 °C; under TPRVPDNSL, 60.7 °C.
Under YPLLKNISM stands 62.6 °C.
In turn, FPRHIEPEL gave a thermal melting temperature of 52.1 °C.
Under GPTQPPLSL stands 61.5 °C; under APGIRSWSL, 62.1 °C; under LPRSEVTFL, 62.1 °C.
Sequence LPRSIGNLTQL showed a thermal melting temperature of 62.2 °C.
For the sequence YPKGAGEML, the thermal melting temperature was determined as 59.3 °C.
As to RPSSHPLIF, the thermal melting temperature was 61.9 °C.
Next, APFEPLASGIL: 60.7 °C.
Under RPKPIITSV stands 59.6 °C; under IPRTPLSPSPM, 59.5 °C.
Under RPRPDPSPEI stands 51.7 °C; under SPVSRIGL, 54 °C; under AVEPGRPPL, 59.3 °C.
For the sequence TPRSPPLGL, the thermal melting temperature stood at 62.3 °C.
The sequence KPSAEFITL yielded a thermal melting temperature of 62.6 °C.
Next, MPRPPETFL: 61.1 °C; MPDSLRSGEYL: 59.7 °C; TPRLPQRNL: 56.9 °C.
Under IPAAPVPSL stands 62 °C.
Turning to LPAPKGPAL, the thermal melting temperature was 57.9 °C.
IPDEAKALSLL returned a thermal melting temperature of 63.3 °C.
Under QPAVPLARAF stands 54.1 °C.
Next, VPNQKRLTLL: 62.4 °C.
NPNLRKNVL: the thermal melting temperature is 57.4 °C.
As to KPNEFASQINL, the thermal melting temperature was 61.6 °C.
Under NPHEPWNRL stands 56.8 °C; under SPYPWPLNHI, 61.1 °C.
Next, FPRLPPASV: 61.7 °C.
Under SPITGRSKL stands 61.3 °C; under QPQFQRQGL, 60.4 °C.
As to RPYEPINSI, the thermal melting temperature amounted to 59.8 °C.
Next, AIRNAMGSL: 55.7 °C; KPIPLPRF: 53.2 °C; QPRLFTMDL: 60.2 °C.
